Source: PMC4336329 (PLoS ONE, 2015)
About 2,200 (0.71%) of roughly 310,000 compounds showed an effect of 50% or more. The effect is printed as a negative number. The list shows a part of the results.

The compounds below were run against human ether-à-go-go-related gene (hERG) potassium channel (human, UniProt Q12809) (assay: primary screen, population patch clamp on CHO cells stably expressing hERG).
Chain of human ether-à-go-go-related gene (hERG) potassium channel (Q12809 whole entry, looked up): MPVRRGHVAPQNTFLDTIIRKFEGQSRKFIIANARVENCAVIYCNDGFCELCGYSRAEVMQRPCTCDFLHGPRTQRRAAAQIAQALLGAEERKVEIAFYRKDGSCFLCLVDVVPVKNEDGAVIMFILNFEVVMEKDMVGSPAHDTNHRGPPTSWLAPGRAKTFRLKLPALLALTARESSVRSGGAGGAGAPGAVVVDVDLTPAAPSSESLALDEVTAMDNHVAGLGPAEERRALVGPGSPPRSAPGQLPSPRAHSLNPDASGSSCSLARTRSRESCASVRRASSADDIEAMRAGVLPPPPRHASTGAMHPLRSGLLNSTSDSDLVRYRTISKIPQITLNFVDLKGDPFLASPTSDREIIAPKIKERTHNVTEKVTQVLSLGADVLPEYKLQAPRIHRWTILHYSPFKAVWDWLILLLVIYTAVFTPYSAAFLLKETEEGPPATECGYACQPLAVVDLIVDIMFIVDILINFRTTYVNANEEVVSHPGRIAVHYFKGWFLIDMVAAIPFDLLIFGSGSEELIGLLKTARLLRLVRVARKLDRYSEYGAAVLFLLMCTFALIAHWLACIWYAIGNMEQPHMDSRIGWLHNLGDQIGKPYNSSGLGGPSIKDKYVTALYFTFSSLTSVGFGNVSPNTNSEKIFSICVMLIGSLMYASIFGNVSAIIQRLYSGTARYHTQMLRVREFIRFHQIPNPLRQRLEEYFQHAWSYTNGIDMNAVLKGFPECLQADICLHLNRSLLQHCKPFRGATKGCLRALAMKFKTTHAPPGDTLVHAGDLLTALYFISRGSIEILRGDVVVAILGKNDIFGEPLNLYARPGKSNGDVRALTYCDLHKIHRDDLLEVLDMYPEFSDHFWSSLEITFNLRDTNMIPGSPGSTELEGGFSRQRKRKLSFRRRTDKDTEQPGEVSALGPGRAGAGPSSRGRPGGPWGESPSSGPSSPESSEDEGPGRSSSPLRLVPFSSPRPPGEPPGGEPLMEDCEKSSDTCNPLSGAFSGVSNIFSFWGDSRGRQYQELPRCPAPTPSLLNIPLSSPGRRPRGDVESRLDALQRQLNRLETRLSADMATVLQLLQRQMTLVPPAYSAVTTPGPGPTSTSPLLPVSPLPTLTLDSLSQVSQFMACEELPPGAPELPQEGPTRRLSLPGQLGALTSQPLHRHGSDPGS

Structure (SMILES) | hERG current change (%, negative = inhibition) at 1uM [%]
CC(=O)OCC(=O)[C@@]12OC(C)(C)O[C@@H]1CC1C3C[C@H](F)C4=CC(=O)C=CC4(C)[C@@]3(F)C(O)CC12C (some centres unmarked) | 15.4
Cl.OC(CNCc1ccc(-c2ccccc2)cc1)c1ccccc1 (centres unmarked) | 5.21
COc1ccc(CC2(CO)COc3ccccc3C2=O)cc1 (centres unmarked) | 0.144
C#CCSc1nnc(-c2ccc(OC)cc2)o1 | -12.1
COc1ccc(OC)c(-c2nc(CN3CCCCC3c3cccnc3)c(C)o2)c1 (centres unmarked) | 8.01
CCCN(Cc1ccccc1)C(=S)Nc1ccc(OCC)cc1 | 6.03
Cc1ccccc1NC(=O)CCN1CCN(CCO)CC1 | 18.4
Cc1ccc(C(=O)N2CCC(C(=O)NC3CCCCCC3)CC2)cc1 | 13.9
COc1ccc(S(=O)(=O)N(CC(=O)NCc2cccnc2)c2ccc(F)cc2)cc1OC | 9.21
CCN1CCN(S(=O)(=O)c2ccc(Cl)c(C(=O)N(C)Cc3ccc(F)cc3)c2)CC1 | 6.21
CCCOC(=O)c1ccc(NC(=O)C2C3CCC(C3)C2C(=O)O)cc1 (centres unmarked) | 17.5
CCOc1cc(N2CCOCC2)c(OCC)cc1NC(=O)Cc1cccc(OC)c1 | 9.13
CN1CC2(C(=O)c3ccccc3)CN(C)CC(C(=O)c3ccccc3)(C1)C2 | -7.52
Cc1cc(OC(=O)N(C)C)nc(-c2ccc(C)c(Cl)c2)n1 | 5.38
CCCCNC(=O)CSc1nc2ccccc2n1S(=O)(=O)c1ccc(Br)cc1 | 7.05
O=c1c2ccccc2c2ccccc2c(=O)n1Cc1cccnc1 | 12.9
CN(CC(=O)Nc1cccc(F)c1)C(=O)c1ccccc1CCc1ccccc1 | 12.5
CC(=O)C1=C(O)C(=O)N(CCCn2ccnc2)C1c1ccc(Cl)cc1 (centres unmarked) | 7.14
CN1CCC(OC(=O)C2c3ccccc3Oc3ccccc32)CC1.Cl | 0.3
N#Cc1ccccc1CSc1nnc(Cc2ccccc2)o1 | 11.3
c1ccc2[nH]c(SCCN3CCOCC3)nc2c1 | 4.94
Cc1ccc(C)n1-c1nn(S(=O)(=O)c2ccccc2)c2cccc(F)c12 | 11.5

Structure (SMILES) | hERG current change (%, negative = inhibition) at 1uM [%]
COc1ccc(OC)c(NC(=O)CN(c2ccc(C)cc2)S(=O)(=O)c2c(C)n[nH]c2C)c1 | 12
O=C(COc1ccc(S(=O)(=O)N2CCOCC2)cc1)NCc1ccco1 | 10.6
COCCOc1ccc(C(F)(F)F)cc1Nc1nc2ccccc2o1 | -3.18
CCOC(=O)c1c(NC(=O)CSc2nnnn2C)sc(CC)c1C | 10.3
COc1ccc(NC(=O)NC2CCCCCCC2)cc1OC | 10.4
O=C(C1CCN(Cc2ccccc2)CC1)N1CCN(C/C=C/c2ccccc2)CC1.O=C(O)C(=O)O | -1.68
Cc1cc(C)n(-c2nncn2/N=C/c2ccccc2F)n1 | 9.34
CCC1Oc2ccccc2N(CC(=O)NCCc2ccc(OC)c(OC)c2)C1=O (centres unmarked) | 11.4
Cn1c(=O)cc(SCC(=O)NCC2CCCO2)c2ccccc21 (centres unmarked) | 11.8
CC1CCN(C(=S)NC(=O)C2CCCCC2)CC1 | 5.44
C/C(=N\Nc1ccccn1)c1ccc(C#N)cc1 | -1.36
C#CCSc1nsc(SCC#C)c1C#N | 13.1
CCN=C(N/N=C/c1ccc([N+](=O)[O-])cc1)SC.I | 1.9
COc1ccc(-c2nc3c4ccccc4ccn3c2CN2CCCCC2)cc1 | 6.14
Cc1nn(-c2ccccc2)c2c1C(c1ccccc1)C(C#N)=C(N)O2 (centres unmarked) | 0.69
O=C(Oc1cccc(NC(=O)c2ccco2)c1)c1ccc(Br)c(S(=O)(=O)N2CCCCC2)c1 | 11.5
CCOC(=O)C(/C=C(\C#N)C(=O)OCC)=C(/N)N1CCN(c2ccccc2)CC1 | 20.5
CC(C)(C)c1ccc(Cn2nnc3c(=O)[nH]c(C4CCCN(C(=O)c5cccs5)C4)nc32)cc1 (centres unmarked) | 13.1
CCOC(=O)c1c(-c2ccc(OC)cc2)csc1NC(=O)CNCc1ccco1 | 8.14
OCCC1CN(Cc2ccc(Oc3ncccn3)cc2)CCN1CCc1ccccc1 (centres unmarked) | 0.0303
CC1Cc2ccccc2N1C(=O)CSc1nncn1C (centres unmarked) | 8.74
Cc1c(C(=O)N2CCC(C)CC2)sc2ncn(CC(=O)N3CCC(C)CC3)c(=O)c12 | 22.8

Structure (SMILES) | hERG current change (%, negative = inhibition) at 1uM [%]
Cc1cc([N+](=O)[O-])c(Cl)cc1NC(=O)C(C)C | 7.11
C=CCc1cc(Cl)ccc1OCCCNC(C)CC.O=C(O)C(=O)O (centres unmarked) | 5.09
CCCC(C(=O)NC1CCCC1)N(C(=O)Cn1nnc(-c2ccc(C)o2)n1)c1ccccc1OC (centres unmarked) | 5.94
O=C(Nc1cccc(F)c1)c1cc(-c2ccco2)nc2ccccc12 | 6.35
COc1ccccc1N(CC(=O)NCC1CCCO1)C(=O)CCC(=O)Nc1nccs1 (centres unmarked) | 4.46
CN(C)N1C(N)=C(C#N)C(c2ccccc2)C2=C1CC(C)(C)CC2=O (centres unmarked) | 3.74
O=c1c2cc(N3CCOCC3)ccc2[nH]c(=S)n1Cc1ccc(Cl)cc1 | 6.29
O=C(Cc1cccc(NC(=O)C2CCN(C(=O)C3CCC3)CC2)c1)Nc1cccc(C(=O)N2CCCC2)c1 | 7.36
Cc1cc(C)cc(N2CC(C)(C)C2=O)c1 | 10.4
COc1ccc(C(OCC(O)CNCCc2ccc(S(N)(=O)=O)cc2)c2ccc(OC)cc2)cc1 (centres unmarked) | -1.33
COc1cc(OC)c(NC(=O)c2sc3ncn(CC(=O)N4CCN(c5ccccn5)CC4)c(=O)c3c2C)cc1Cl | 11.5
Brc1ccccc1-c1nnc(COc2ncnc3c2cnn3-c2ccccc2)o1 | 2.47
c1ccc(CN2CCN(c3cnc4ccccc4n3)CC2)cc1 | 6
Cc1nn(C)c(C)c1NC(=O)CSc1nc(Cc2ccccc2)nc2c1cnn2-c1ccccc1 | 12
COC(=O)C1=C(N)Oc2cc(C)n(CCCn3ccnc3)c(=O)c2C1c1cccc(Cl)c1 (centres unmarked) | -27.8
Cc1cnc(NC(=O)CSc2nnc(COc3ccccc3)o2)s1 | 3.48
CCCCN(C)C(=O)C1CCC(CNS(=O)(=O)c2ccc3c(c2)CC(C)N3C(=O)C2CC2)CC1 (centres unmarked) | -14
CCOCC(=O)Nc1c(C(=O)OCC)oc2ccccc12 | -2.11
COc1ccc(C(C)=O)cc1COC(=O)c1ccc(S(=O)(=O)N(C)C)cc1 | 12.6
Cc1cccc(Nc2nc3c(s2)CCCC3)c1 | 8.23
COc1cc(C(C(=O)NC2CCCCC2)N(C(=O)c2snc(C(N)=O)c2N)c2ccc(C)cc2)ccc1O (centres unmarked) | 8.68
CCOC(=O)c1cc(-c2cccc([N+](=O)[O-])c2)nc2[nH]c(=O)[nH]c(=O)c12 | 5

Structure (SMILES) | hERG current change (%, negative = inhibition) at 1uM [%]
O=C(O)c1ccc(CSc2nnc(-c3cccnc3)n2-c2ccc(Br)cc2)cc1 | 10.7
NS(=O)(=O)c1ccc(CCNC(=O)CCCn2c(SCC(=O)N3CCCC3)nc3ccsc3c2=O)cc1 | 6.18
Cc1cc(NC(=O)c2ccc(Cl)cc2)ccc1NC(=O)c1ccccc1Cl | 9.38
c1cncc(-c2ccnc3ncnn23)c1 | 0.683
CCN(CC)CCOC(=O)C1(c2ccccc2)CCCC1.Cl | 6.96
COCCCN(C(=O)CCOc1ccc(C)cc1)c1c(N)n(Cc2ccccc2)c(=O)[nH]c1=O | 4.84
CN1CCc2c(sc(NC(=O)c3ccc(S(=O)(=O)N4CCOCC4)cc3)c2C(N)=O)C1 | 9.55
COC(=O)c1c(C(C)=O)cnc2ccc(Br)cc12 | 2.11
COc1ccccc1-c1noc(-c2ccco2)n1 | 4.63
S=C1NCCOCCOCCOCCOCCNC(=S)NCCOCCOCCOCCOCCN1 | -5.31
CCOc1ccc(/C=C/C(=O)N(CC)CC(=O)Nc2ccc3c(c2)OCCO3)cc1OCC | 10.8
CCC1CCc2sc(C(=O)N3CCCN(C)CC3)cc2C1 (centres unmarked) | 4.44
C/C(CCc1ccccc1)=N\NC(=O)C(=O)Nc1cccc(Cl)c1 | 13.9
Cc1cc(C)cc(NC(=O)C2CCN(S(=O)(=O)c3ccc4[nH]c(=O)ccc4c3)CC2)c1 | 7.62
Cc1ccn2cc(CNS(=O)(=O)c3ccc4ccccc4c3)nc2c1 | 3.95
O=C(c1ccc(Cl)cc1)C1CCCN(Cc2cccc3cnccc23)C1 (centres unmarked) | -5.56
CCNC(=S)N1CCN(CC(=O)Nc2ccc(OC)cc2)CC1 | -2.52
O=c1c2ccccc2nc(SCc2nc3ccccc3s2)n1Cc1ccco1 | 17.6
CCN(C(=O)c1cc(Cl)ccc1Cl)C1CCS(=O)(=O)C1 (centres unmarked) | 4.46
CCN(C(=O)COC(=O)c1cc(C)oc1C)c1c(N)n(Cc2ccccc2)c(=O)[nH]c1=O | 5.36
